Experimental data as given in the supplement of paper PMC12217912.
Some of the results follow. The full chains were built here from the parent and the listed change. Inactive controls read about 0.05.

B1: TEV protease; numbered along this chain (parent)
chain: MGESLFKGPRDYNPISSSICHLTNESDGHTTSLYGIGFGPFIITNKHLFRRNNGTLVVQSLHGVFKVKDTTTLQQHLVDGRDMIIIRMPKDFPPFPQKLKFREPQREERICLVTTNFQTKSMSSMVSDTSCTFPSGDGIFWKHWIQTKDGQCGSPLVSTRDGFIVGIHSASNFTNTNNYFTSVPKNFMELLTNQEAQQWVSGWRLNADSVLWGGHKVFMVKPEEPFQPVKEATQL

Variants of: B1
Test: raw area under fraction-flipped curve 0-4 h after induction (AUC4h, not background-subtracted), DNA-recorder readout of cleavage of the substrate (dimensionless); higher = more cleavage of the substrate by the protease variant
Settings: temperature: 34 °C; time window: 0-4 h after rhamnose induction
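Also: Bxb1 expression induced with 0.2% (w/v) L-rhamnose at OD600 near 0.5, cultures sampled hourly, flipped fraction per protease–substrate barcode pair counted by paired-end Illumina sequencing.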

Variant	area with substrate ENLYDQS	area with substrate ENLYEQS	area with substrate ENLYGQS	area with substrate ENLYHQS	area with substrate ENLYIQS	area with substrate ENLYKQS	area with substrate ENLYLQS	area with substrate ENLYNQS	area with substrate ENLYPQS	area with substrate ENLYQQS	area with substrate ENLYSQS	area with substrate ENLYTQS	area with substrate ENLYWQS	area with substrate ENLYMQS	area with substrate ENLYRQS	area with substrate ENLYVQS	area with substrate ENLYYQS
I139P	0.0658	0.0633	0.0579	0.0688	0.13	0.0633	0.0843	0.0403	0.0653	0.0639	0.0849	0.0955	0.0868				
T44G	0.0579	0.0578	0.069	0.0584	0.0686	0.0348		0.0562	0.0599	0.0665	0.0585		0.0678	0.0601	0.0373	0.0815	0.0505
T44E	0.0479	0.0485	0.0398	0.0509	0.0416			0.0246	0.0436	0.0488		0.0372	0.0323	0.0221		0.0436	0.0375
I19S	0.0527	0.058	0.0659	0.0651				0.0553			0.076	0.0592		0.0692			0.0521
I19N	0.0421	0.0551	0.0495	0.056	0.0812		0.0619			0.0534	0.0106	0.0695		0.0655	0.0586	0.108	
P40Y	0.0643	0.0622	0.0452	0.0662	0.114	0.0907	0.0717	0.0709		0.0592	0.0592	0.0811	0.0644	0.0748	0.0518	0.156	0.0615
S130W	0.0582	0.0662	0.0618	0.0591	0.0913	0.0573		0.0665	0.0774	0.0919		0.0629	0.0644		0.0587	0.0761	0.0607
T71P	0.0459	0.0658		0.0453		0.052		0.0855	0.0546				0.0798			0.0932	0.0633
M125S	0.0712	0.0588	0.0529	0.0925	0.0911	0.0624						0.074		0.0968	0.0697		0.0768
H29K	0.0658	0.045		0.0561				0.0884		0.0629						0.0887	0.0572
K68V	0.0494	0.0652	0.0519	0.0702	0.128	0.0791		0.07	0.07	0.0643		0.0834	0.0754		0.0441	0.102	0.0644
F101K	0.0676			0.0735		0.054		0.0727	0.06		0.0556	0.0496					
D149V	0.0516	0.082		0.0586	0.0752			0.0754			0.0833		0.0873		0.0631		
S127M	0.0671	0.0837	0.0693	0.073		0.0502		0.0695	0.0769	0.0478	0.0614			0.0867	0.0492	0.142	
Q151G	0.0666	0.0543	0.0823	0.0618	0.0964	0.0493	0.078	0.0638	0.0511	0.0587	0.0851	0.0811	0.0748	0.0665	0.0629	0.116	
